Residue numbers refer to the chain shown, from its start. No constants are given. Whether binding was seen depends on the method and setting. For some of these results: Binding seen in cells or lysates may run through a third protein. Some entries that bind do so weakly or less than the wild type. For some of these results: Where a sequence is shown, tags or fusion partners need not be part of it.
Key:
[1] = target: T1, DUSP2 (wild-type), GAL4 DNA-binding domain fusion (human) (UniProt Q05923); test: two-hybrid; semi-quantitative analysis by induction of the beta-galactosidase reporter gene; triplicate
T1 sequence: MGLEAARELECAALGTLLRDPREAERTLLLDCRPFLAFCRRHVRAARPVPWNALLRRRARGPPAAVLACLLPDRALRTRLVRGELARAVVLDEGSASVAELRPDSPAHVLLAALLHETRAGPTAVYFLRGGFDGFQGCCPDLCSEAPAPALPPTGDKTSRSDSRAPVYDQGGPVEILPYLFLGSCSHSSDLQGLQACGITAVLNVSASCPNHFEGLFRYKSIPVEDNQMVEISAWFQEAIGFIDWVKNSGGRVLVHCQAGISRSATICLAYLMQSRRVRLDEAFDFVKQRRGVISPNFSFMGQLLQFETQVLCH

Protein sequences, listed by entry. Tags and fused reporters are not part of them. Lines headed by an entry give the natural chain unless they say otherwise; changes in a name come on top.
UniProt Q16659: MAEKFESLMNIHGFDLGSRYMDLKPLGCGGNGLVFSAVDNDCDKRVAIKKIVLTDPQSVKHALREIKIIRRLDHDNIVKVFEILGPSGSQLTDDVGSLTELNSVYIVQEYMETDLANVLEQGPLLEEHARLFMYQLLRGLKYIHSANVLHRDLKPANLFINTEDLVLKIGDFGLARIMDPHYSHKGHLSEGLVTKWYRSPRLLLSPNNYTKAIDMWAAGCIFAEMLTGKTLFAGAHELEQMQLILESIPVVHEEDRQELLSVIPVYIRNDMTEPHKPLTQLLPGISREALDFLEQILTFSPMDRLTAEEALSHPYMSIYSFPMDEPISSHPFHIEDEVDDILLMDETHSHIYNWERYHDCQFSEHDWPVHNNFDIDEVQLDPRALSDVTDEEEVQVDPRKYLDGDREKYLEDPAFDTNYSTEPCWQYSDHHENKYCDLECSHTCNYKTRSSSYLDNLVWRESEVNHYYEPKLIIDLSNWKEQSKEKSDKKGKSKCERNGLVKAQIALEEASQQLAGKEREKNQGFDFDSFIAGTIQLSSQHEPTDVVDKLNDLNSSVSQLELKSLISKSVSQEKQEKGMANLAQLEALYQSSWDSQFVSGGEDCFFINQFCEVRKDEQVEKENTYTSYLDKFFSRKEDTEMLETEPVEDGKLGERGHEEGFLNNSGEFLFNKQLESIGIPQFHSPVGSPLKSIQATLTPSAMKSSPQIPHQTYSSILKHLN
UniProt P31152: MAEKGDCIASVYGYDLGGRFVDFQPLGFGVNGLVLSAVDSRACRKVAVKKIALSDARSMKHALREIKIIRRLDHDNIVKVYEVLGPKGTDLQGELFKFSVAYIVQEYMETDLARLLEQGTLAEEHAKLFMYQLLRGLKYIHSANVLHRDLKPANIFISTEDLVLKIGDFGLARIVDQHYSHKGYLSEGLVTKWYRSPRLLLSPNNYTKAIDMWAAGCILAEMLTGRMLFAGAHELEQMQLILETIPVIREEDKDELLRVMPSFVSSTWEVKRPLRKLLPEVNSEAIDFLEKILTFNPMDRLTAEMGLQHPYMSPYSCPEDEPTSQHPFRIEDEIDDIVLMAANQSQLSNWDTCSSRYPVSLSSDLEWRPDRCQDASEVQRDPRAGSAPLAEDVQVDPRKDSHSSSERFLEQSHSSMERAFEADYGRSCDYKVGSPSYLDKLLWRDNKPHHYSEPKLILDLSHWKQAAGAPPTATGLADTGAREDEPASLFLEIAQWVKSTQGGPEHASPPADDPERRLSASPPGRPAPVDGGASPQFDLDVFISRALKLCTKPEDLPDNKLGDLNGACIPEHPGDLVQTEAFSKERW

[2] = target: T1, DUSP2 (wild-type), GAL4 DNA-binding domain fusion (human); test: two-hybrid; GAL4 activation domain fusions of ERK3, ERK4 or ERK2 (pGADT7, Y187) mated with GAL4 DNA-binding domain fusions of MKPs (pGBKT7, PJ69-2A); growth on SD medium lacking leucine, tryptophan, alanine and histidine
[3] = target: T2, DUSP10/MKP-5, GAL4 DNA-binding domain fusion (human) (UniProt Q9Y6W6); test: as above
T2 sequence: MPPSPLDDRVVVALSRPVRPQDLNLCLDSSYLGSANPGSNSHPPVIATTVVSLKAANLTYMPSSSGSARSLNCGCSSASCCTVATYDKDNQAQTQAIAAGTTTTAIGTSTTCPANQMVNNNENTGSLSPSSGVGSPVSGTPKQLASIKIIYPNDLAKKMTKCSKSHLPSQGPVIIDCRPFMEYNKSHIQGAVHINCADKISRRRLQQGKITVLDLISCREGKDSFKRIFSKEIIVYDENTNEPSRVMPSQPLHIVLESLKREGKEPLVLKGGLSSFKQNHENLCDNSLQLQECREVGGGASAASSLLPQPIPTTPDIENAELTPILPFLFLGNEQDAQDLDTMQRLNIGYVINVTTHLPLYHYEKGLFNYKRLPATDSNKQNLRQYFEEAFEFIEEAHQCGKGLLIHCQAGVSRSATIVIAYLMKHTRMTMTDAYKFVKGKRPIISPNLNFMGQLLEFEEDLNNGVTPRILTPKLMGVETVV

[4] = target: T3, DUSP16/MKP-7, GAL4 DNA-binding domain fusion (human) (UniProt Q9BY84); test: as above
T3 sequence: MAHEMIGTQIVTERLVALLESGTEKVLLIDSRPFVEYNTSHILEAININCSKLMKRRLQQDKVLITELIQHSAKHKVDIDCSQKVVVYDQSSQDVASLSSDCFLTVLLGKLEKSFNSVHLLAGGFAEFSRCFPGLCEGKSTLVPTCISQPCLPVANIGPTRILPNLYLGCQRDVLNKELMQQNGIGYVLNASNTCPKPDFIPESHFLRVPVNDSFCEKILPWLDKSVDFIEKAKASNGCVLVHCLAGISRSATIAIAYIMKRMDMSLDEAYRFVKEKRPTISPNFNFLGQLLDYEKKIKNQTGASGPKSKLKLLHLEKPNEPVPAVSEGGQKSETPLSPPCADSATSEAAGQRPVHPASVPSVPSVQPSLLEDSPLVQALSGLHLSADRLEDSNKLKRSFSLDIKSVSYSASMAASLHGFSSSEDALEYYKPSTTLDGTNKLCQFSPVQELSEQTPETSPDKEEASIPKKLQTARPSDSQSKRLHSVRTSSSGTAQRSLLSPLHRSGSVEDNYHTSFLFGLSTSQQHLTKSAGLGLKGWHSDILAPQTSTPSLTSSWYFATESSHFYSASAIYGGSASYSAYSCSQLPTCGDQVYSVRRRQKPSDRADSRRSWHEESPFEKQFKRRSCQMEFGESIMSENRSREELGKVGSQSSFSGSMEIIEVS

[5] = target: T4, DUSP6/MKP-3, GAL4 DNA-binding domain fusion (human) (UniProt Q16828); test: as above
T4 sequence: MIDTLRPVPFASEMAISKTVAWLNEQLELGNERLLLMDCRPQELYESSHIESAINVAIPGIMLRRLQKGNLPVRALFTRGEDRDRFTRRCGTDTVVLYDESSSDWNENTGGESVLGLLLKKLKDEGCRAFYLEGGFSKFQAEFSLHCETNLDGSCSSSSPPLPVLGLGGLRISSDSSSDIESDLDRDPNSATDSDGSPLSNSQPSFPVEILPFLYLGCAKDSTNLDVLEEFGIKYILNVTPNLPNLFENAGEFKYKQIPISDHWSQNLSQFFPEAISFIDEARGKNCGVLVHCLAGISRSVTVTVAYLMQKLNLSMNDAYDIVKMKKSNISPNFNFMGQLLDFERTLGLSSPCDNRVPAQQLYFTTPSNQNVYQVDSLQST

[6] = target: T5, catalytically inactive DUSP2 mutant (DUSP2CS, C257S), GAL4 DNA-binding domain fusion (human) (UniProt Q05923); test: as above
T5 sequence: T1 sequence with C257S

[7] = target: T6, DUSP1/MKP-1, GAL4 DNA-binding domain fusion (human) (UniProt P28562); test: as above
T6 sequence: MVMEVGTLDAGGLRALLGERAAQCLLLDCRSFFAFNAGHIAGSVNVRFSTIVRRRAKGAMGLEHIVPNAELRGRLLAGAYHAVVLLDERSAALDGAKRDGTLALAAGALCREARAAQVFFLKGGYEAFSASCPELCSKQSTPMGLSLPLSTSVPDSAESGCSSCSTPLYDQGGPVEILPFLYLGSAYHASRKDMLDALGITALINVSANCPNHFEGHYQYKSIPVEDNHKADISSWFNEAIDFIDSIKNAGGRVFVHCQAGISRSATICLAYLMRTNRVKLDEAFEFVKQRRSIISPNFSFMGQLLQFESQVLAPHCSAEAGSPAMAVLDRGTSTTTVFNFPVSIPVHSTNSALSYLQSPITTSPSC

[8] = target: endogenous ERK3 (human (endogenous in NCI-H1299 and Jurkat)) (UniProt Q16659); test: co-IP; Jurkat T-cells stimulated with PMA and anti-CD3 antibody for 3 hours in presence of MG132; endogenous ERK3 immunoprecipitated with goat polyclonal anti-ERK3; DUSP2 detected by Western blot; preimmune sheep IgG as control
[9] = target: T7, GST-mDUSP2CS (catalytically inactive C261S mutant of murine DUSP2) (mouse) (UniProt Q05922); test: pull-down; 2 ug recombinant ERK3 or ERK4 with 2 ug purified GST fusion in 200 ul 50 mM Tris/HCl pH 7.5, 1 mM EGTA, 1 mM EDTA, 1% Triton-X 100, 1 mM sodium orthovanadate, 50 mM sodium fluoride, 5 mM sodium pyrophosphate, 0.27 M sucrose, 2 h at 4 C; Glutathione-Sepharose; Western blot; both purified
T7 sequence: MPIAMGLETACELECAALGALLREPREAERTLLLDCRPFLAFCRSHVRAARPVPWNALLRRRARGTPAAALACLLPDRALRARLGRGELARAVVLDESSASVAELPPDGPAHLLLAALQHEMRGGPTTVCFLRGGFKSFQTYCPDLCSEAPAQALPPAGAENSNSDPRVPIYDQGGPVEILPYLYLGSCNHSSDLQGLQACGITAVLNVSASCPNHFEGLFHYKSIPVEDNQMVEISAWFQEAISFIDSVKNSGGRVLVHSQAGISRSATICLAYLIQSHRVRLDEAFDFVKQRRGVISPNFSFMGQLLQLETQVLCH

[10] = target: T8, GST-mDUSP2 (fusion between GST and the murine homologue of DUSP2, wild-type) (mouse) (UniProt Q05922); test: as above
T8 sequence: T7 sequence with S261C

[11] = target: T9, GST-mDUSP2KIM (kinase interaction motif-deficient murine DUSP2) (mouse) (UniProt Q05922); test: as above
T9 sequence: T7 sequence with R60A, R61S, R62A, S261C

binding [1]	binding [2]	binding [3]	binding [4]	binding [5]	binding [6]	binding [7]	binding [9]	binding [10]	Substance	binding [11]	further results
binds	binds	no binding	no binding	no binding	binds	no binding	–	–	ERK4 (wild-type), GAL4 activation domain fusion (from UniProt P31152 1-587) (enzyme)	–	–
–	–	–	–	–	–	–	–	–	endogenous DUSP2 (from UniProt Q05923 1-314) (enzyme)	–	binding [8]: binds
no binding	–	–	–	–	–	–	–	–	ERK3 D324N (CD domain mutant), two-hybrid fusion (from UniProt Q16659 1-721) (enzyme)	–	–
binds	binds	no binding	no binding	no binding	binds	no binding	–	–	ERK3 (wild-type), GAL4 activation domain fusion (from UniProt Q16659 1-721) (enzyme)	–	–
–	–	–	–	–	–	–	binds	binds	purified recombinant ERK3 (from UniProt Q16659 1-721) (enzyme)	no binding (tested: 2 ug of each protein in 200 ul)	–
–	–	–	–	–	–	–	binds	binds	purified recombinant ERK4 (from UniProt P31152 1-587) (enzyme)	no binding (tested: 2 ug of each protein in 200 ul)	–
